Assay results from patent US20140329863A1 (priority 2011, published 2014).

What was measured:
[1] = Binding in mouse brain homogenate; conditions: for Unbound (%), Mouse Brain Homogenate / Percentage binding, Mouse (Brain) homogenate, 1 μM: 1 μM; for Unbound (%), Mouse Brain Homogenate: mean ± SD, n = 3
[2] = Hepatic microsomal stability, rat; conditions: Sprague-Dawley, liver microsomes, pH 7.4

C(=N\Nc1ccc(-c2cnco2)cc1)/c1ccncc1 [Compound B, (E)-5-(4-(2-(pyridin-4-ylmethylene)hydrazinyl)phenyl)oxazole, reference compound]
Unbound (%), Mouse Brain Homogenate [1]: 11.4 ± 2.89%

Cc1cccc(Nc2nc(-c3cc4ccccc4o3)cs2)n1 [IND22, (4-Benzofuran-2-yl-thiazol-2-yl)-(6-methyl-pyridin-2-yl)-amine]
half-life at 1 μM [2]: 1.77 h

Cc1cccc(Nc2nc(-c3ccc(-c4ccccc4)cc3)cs2)n1 [IND24, (4-Biphenyl-4-yl-thiazol-2-yl)-(6-methyl-pyridin-2-yl)-amine]
half-life at 1 μM [2]: > 1 h | half-life at 1 μM ([2]; female): 12.8 h | half-life at 1 μM ([2]; male): 7.17 h | Percentage binding, Mouse (Brain) homogenate, 1 μM [1]: 91.8 ± 0.35% | Unbound (%), Mouse Brain Homogenate [1]: 8.20 ± 0.35% | Percentage binding, Mouse (Brain) homogenate, 10 μM [1]: 93.1 ± 1.69%

Cc1ccnc(Nc2nc(-c3ccncc3)cs2)c1 [IND52, (4-Methyl-pyridin-2-yl)-(4-pyridin-4-yl-thiazol-2-yl)-amine]
half-life at 1 μM [2]: 0.267 h

Cc1ccnc(Nc2nc(-c3ccc(-c4ccccn4)s3)cs2)c1 [IND81, (4-Methyl-pyridin-2-yl)-[4-(5-pyridin-2-yl-thiophen-2-yl)-thiazol-2-yl]-amine]
half-life at 1 μM [2]: 0.967 h | half-life at 1 μM ([2]; female): 4.83 h | half-life at 1 μM ([2]; male): 1.17 h | Percentage binding, Mouse (Brain) homogenate, 1 μM [1]: 90.6 ± 1.49% | Unbound (%), Mouse Brain Homogenate [1]: 9.43 ± 1.49% | Percentage binding, Mouse (Brain) homogenate, 10 μM [1]: 90.7 ± 1.43%

c1ccc2cc(Nc3nc(-c4ccncc4)cs3)ncc2c1 [IND85, Isoquinolin-3-yl-(4-pyridin-4-yl-thiazol-2-yl)-amine]
half-life at 1 μM [2]: 0.3 h

C(=N\Nc1ccc(-c2cnco2)cc1)/c1ccncc1 [IND54304, reference compound]
half-life at 1 μM ([2]; female): 1.6 h | half-life at 1 μM ([2]; male): 1.6 h
